No constants are given. Whether binding was seen depends on the method and setting. Binding seen in cells or lysates may run through a third protein. Some entries that bind do so weakly or less than the wild type. Tags and fused reporters may be left off the sequences shown.
How the values were obtained:
Assay in all cases: pull-down; 1.5 nmol GST-LASP1 or its domains on glutathione-agarose beads with 1 mg of 231S total protein lysate, 2 h at 4 °C, washed with lysis buffer (100 mM NaCl, 50 mM Tris pH 8.0, 0.1% deoxycholate, 0.1% IGEPAL CA-630, 5 mM EDTA); Western blot; only the target purified
[1] = biological target: T1, GST-LASP1 SH3 domain (residues 200–261) (human) (UniProt Q14847)
T1 sequence: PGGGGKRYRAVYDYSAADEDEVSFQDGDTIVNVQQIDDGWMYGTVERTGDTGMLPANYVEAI

[2] = biological target: T2, GST-LASP1 LIM domain (residues 1–60) (human) (UniProt Q14847)
T2 sequence: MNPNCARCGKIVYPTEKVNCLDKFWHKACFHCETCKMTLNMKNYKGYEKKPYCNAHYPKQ

[3] = biological target: T3, GST-LASP1 (full length LIM and SH3 Protein 1, residues 1–261) (human) (UniProt Q14847)
T3 sequence: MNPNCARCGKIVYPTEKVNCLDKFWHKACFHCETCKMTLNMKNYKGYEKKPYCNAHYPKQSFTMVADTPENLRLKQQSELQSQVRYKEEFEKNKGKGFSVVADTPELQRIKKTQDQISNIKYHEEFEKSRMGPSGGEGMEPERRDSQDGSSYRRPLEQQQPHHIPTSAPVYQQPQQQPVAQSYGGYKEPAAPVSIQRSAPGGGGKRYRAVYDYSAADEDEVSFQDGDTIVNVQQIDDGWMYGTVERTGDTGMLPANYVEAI

Substance: Argonaute 1 (Ago1), endogenous (from UniProt Q9UL18 1-857)
- binding [1]: binds
- binding [2]: no binding
- binding [3]: binds
